These are yes or no findings as the source states them, for the method shown. In cells and extracts the contact can be indirect. Where a sequence is shown, tags or fusion partners need not be part of it.

Binding data for one molecule are collected here from paper PMC9723945.

The experiment concerns the target T1, HA-ATP11A (phosphatidylserine flippase ATP11A) (human) (UniProt P98196).
T1 sequence: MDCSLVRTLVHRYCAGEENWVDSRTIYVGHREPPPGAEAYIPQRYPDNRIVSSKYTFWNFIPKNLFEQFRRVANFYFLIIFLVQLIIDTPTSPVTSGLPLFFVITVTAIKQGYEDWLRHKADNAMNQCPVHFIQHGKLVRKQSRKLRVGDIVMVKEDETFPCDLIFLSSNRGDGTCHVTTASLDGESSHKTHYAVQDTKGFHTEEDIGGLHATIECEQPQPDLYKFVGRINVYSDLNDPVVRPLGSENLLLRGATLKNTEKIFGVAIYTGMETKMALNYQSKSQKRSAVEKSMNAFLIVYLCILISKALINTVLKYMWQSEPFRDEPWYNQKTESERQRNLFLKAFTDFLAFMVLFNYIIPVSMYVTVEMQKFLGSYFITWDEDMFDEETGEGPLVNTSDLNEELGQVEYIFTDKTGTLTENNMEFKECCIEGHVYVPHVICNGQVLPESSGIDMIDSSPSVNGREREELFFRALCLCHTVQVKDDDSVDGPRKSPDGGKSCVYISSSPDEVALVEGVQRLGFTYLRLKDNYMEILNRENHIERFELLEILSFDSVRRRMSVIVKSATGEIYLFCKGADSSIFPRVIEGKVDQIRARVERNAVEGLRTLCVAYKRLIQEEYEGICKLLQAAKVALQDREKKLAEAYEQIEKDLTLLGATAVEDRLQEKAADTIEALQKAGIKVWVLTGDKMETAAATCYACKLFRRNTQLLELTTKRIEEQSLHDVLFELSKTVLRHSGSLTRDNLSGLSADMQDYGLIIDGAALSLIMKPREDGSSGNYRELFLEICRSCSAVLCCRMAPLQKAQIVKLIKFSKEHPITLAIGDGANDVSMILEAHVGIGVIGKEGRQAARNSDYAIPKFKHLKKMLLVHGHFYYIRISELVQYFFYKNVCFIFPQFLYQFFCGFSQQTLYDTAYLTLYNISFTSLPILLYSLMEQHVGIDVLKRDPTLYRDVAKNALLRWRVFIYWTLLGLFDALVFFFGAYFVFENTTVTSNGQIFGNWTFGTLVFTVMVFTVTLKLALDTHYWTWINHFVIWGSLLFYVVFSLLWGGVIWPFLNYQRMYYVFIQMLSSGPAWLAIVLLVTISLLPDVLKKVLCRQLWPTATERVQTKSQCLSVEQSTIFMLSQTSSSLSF
The experiment can be described thus: co-IP; HEK293T cells co-transfected, 48 h; solubilised in 150 mM NaCl, 25 mM Hepes pH 7.2, 1 mM EDTA, 1% Triton X-100 overnight at 4 °C; anti-HA or anti-Myc agarose beads overnight at 4 °C, washed 3x; Western blot; B1FL with B1ΔCT tested without and with coexpressed ATP11A. A general note: A western blot detects proteins with antibodies after separation by electrophoresis.

B1: B1ΔNT (927-1584) (domain or fragment, UniProt O14514 927-1584)
chain: STFAILAQLSADANMEKATLPSVTLIVGCGVSSLTLLMLVIIYVSVWRYIRSERSVILINFCLSIISSNALILIGQTQTRNKVVCTLVAAFLHFFFLSSFCWVLTEAWQSYMAVTGHLRNRLIRKRFLCLGWGLPALVVAISVGFTKAKGYSTMNYCWLSLEGGLLYAFVGPAAAVVLVNMVIGILVFNKLVSKDGITDKKLKERAGASLWSSCVVLPLLALTWMSAVLAVTDRRSALFQILFAVFDSLEGFVIVMVHCILRREVQDAVKCRVVDRQEEGNGDSGGSFQNGHAQLMTDFEKDVDLACRSVLNKDIAACRTATITGTLKRPSLPEEEKLKLAHAKGPPTNFNSLPANVSKLHLHGSPRYPGGPLPDFPNHSLTLKRDKAPKSSFVGDGDIFKKLDSELSRAQEKALDTSYVILPTATATLRPKPKEEPKYSIHIDQMPQTRLIHLSTAPEASLPARSPPSRQPPSGGPPEAPPAQPPPPPPPPPPPPQQPLPPPPNLEPAPPSLGDPGEPAAHPGPSTGPSTKNENVATLSVSSLERRKSRYAELDFEKIMHTRKRHQDMFQDLNRKLQHAAEKDKEVLGPDSKPEKQQTPNKRPWESLRKAHGTPTWVKKELEPLQPSPLELRSVEWERSGATIPLVGQDIIDLQTEV
Regarding B1, the binding result is reported as “no binding”.
